This is an account of results in the supplement of paper PMC11417369.

The other results are listed elsewhere or left out.

For this assay, the system named is PfAP2-HC AP2 domain (GST-tagged). Nature of the assay: gcPBM binding intensity (ln(normalized median fluorescence intensity)); higher = stronger DNA binding. The procedure, abridged:
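Binding intensity is the highest Masliner-normalised natural-log median intensity over replicate spots in either probe orientation. To obtain it, GST-tagged P. falciparum DNA-binding domains made in E. coli were incubated for 1 h on an Agilent 4 × 180k array of primer-extended double-stranded 36-bp intergenic genomic probes plus negative controls. Detection used Alexa488 anti-GST antibody with scanning at 488 nm.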
For the sequence “AACATATAAATGATATGTACACACATTTATATATAT [XGTACX_site7364]”, the “gcPBM binding intensity (ln)” value amounted to 9.85.

“CAAATTAAATATTATGCATGTACCAAACATCCTACC [TGCATGCA_site35]”: the “gcPBM binding intensity (ln)” value came out at 9.66.

Turning to “TAATACAAAAAGAAAAGTACATGTTAATTATTATTT [XGTACX_site2196]”, the “gcPBM binding intensity (ln)” value was 9.54.

Consider “GGAAGAATATATAGGACACACATACAATAATAAATA [CACACA_site6124]”, for which the “gcPBM binding intensity (ln)” value turned out to be 10.

Turning to “TTTTTTTTTTTTTTTTTGCAATATATTTTAAAAAAG [CACACA_negctrl_site25]”, the “gcPBM binding intensity (ln)” value turned out to be 8.69.

Consider “AACTTCTTTTTTATAACACACAAAATATAAATACAA [CACACA_site4313]”, for which the “gcPBM binding intensity (ln)” value is 9.58.

For the sequence “TTTTTTTTTTTTTTCTGTACTTAAAAAGGGGGAGAA [XGTACX_site3799]”, the “gcPBM binding intensity (ln)” value was determined as 9.55.

Turning to “CAAACATGTTCAAATTGTACAATAGAAAATATATAT [XGTACX_site1557]”, the “gcPBM binding intensity (ln)” value was found to be 9.69.

Take “TTGAAGTTTGATTGTAGTACGAATTGGTAGTTTTTT [XGTACX_site6854]”: the “gcPBM binding intensity (ln)” value worked out at 9.67.

On to “CAAATACATGGACACACACACATATACAGATATATA [CACACA_site5854]”, for which the “gcPBM binding intensity (ln)” value stood at 10.9.

With “TTCTTTTAATTACGAGTGCATACCATATGACATTAT [GTGCAC_site9819]”, the “gcPBM binding intensity (ln)” value amounted to 9.74.

Turning to “AGAAAAGAGAGAAAAACATGCACATGATATTATAAA [TGCATGCA_site120]”, the “gcPBM binding intensity (ln)” value came out at 9.68.

In the case of “GTGAATATTAAAAAATGTACACAATTATATGTATAT [XGTACX_site4834]”, the “gcPBM binding intensity (ln)” value was 9.66.

Take “ATAAACATCTAGTGCTGTACACAATTTGATTTTTTT [XGTACX_site3110]”: the “gcPBM binding intensity (ln)” value came out at 9.67.

For “CCCTTAAAATATAAATGTACAAAATTATTTGTATGT [XGTACX_site6164]”, the “gcPBM binding intensity (ln)” value came to 9.56.

Take “GATTATATATACAAAAGTACATTATAAAAATTTCAT [XGTACX_site4223]”: the “gcPBM binding intensity (ln)” value was 9.53.

Consider “TGAGTATATATAAATACACACCAAATGTTAATATAT [CACACA_site5022]”, for which the “gcPBM binding intensity (ln)” value was found to be 9.69.

As for “AGGTTAATCGAAATTGCATGTGACGAAAAATCAAAA [TGCATGCA_site666]”, the “gcPBM binding intensity (ln)” value was determined as 9.53.

Turning to “TATTTATAACATTGTACACACAAAGAAATAATATTA [CACACA_site7422]”, the “gcPBM binding intensity (ln)” value is 9.82.

As to “ACGTATGTATATTACACACATACATATTATTCACTA [CACACA_site204]”, the “gcPBM binding intensity (ln)” value stood at 9.9.

With “CATATATAACATATAACACACATACTTAGTATTACA [CACACA_site5674]”, the “gcPBM binding intensity (ln)” value worked out at 9.81.

Take “ATGATAAACATGGATACACACATATATATTACATAT [CACACA_site1576]”: the “gcPBM binding intensity (ln)” value was 10.1.

As to “ATAATATTTTATATAGTGCATTTGCTCATTATATAT [GTGCAC_site9528]”, the “gcPBM binding intensity (ln)” value was 9.62.

For the sequence “ACATATATATACTATCGATTAATAAATTTGTTTTTT [CACACA_negctrl_site881]”, the “gcPBM binding intensity (ln)” value was 9.68.

Regarding “AATACAAGAACTGACACACATACATACTACATTTTA [CACACA_site2829]”, the “gcPBM binding intensity (ln)” value was 10.4.

“ATATTTATATATAGTAGTACTTTCAATAATTTAAAT [XGTACX_site7276]”: the “gcPBM binding intensity (ln)” value was found to be 9.47.

In the case of “AAAAAATTAAAAATACGTACATATATACATATATAT [XGTACX_site4621]”, the “gcPBM binding intensity (ln)” value came out at 9.71.

Turning to “TATGATATTTATATGCGTACTGAAGTATGCCTATTT [XGTACX_site6133]”, the “gcPBM binding intensity (ln)” value came to 9.87.

On to TCTTAAAATATATAGGTGCAAAAAAAAAAAAAAAAA, for which the “gcPBM binding intensity (ln)” value came out at 9.07.

On to “AAAGAAAGAAGACACACACACATATATAAATATCAA [CACACA_site7715]”, for which the “gcPBM binding intensity (ln)” value was 10.6.

Consider “ATATTCATGTTGATATGTACTTATTCTATATTGAAT [XGTACX_site8347]”, for which the “gcPBM binding intensity (ln)” value came to 9.57.

As to “ATCAGTGATTAGGTTATATATAAAAATGAACTAATA [GTGCAC_negctrl_site647]”, the “gcPBM binding intensity (ln)” value stood at 9.62.

As to “TATATATATATATATATACACACTTGTGCAGAATAT [CACACA_site2216]”, the “gcPBM binding intensity (ln)” value worked out at 9.87.

As to “ATAATTAAAAAAAATTGTACATATAAATAGAAGATT [XGTACX_site230]”, the “gcPBM binding intensity (ln)” value turned out to be 9.85.

Consider “AGATTAAAATAATATAAACACACATATACTTTTTTC [CACACA_site8085]”, for which the “gcPBM binding intensity (ln)” value was determined as 9.82.

For the sequence “AAAAAAAAAAGAATAGCACACACACCGATATAAATA [CACACA_site8111]”, the “gcPBM binding intensity (ln)” value is 10.5.

Consider “TAGGTATGCTCTCAATGTACATAAAATAATTTTACT [XGTACX_site6556]”, for which the “gcPBM binding intensity (ln)” value came out at 9.58.

As for “TGTTTTTATTTATTCTGTACTGAAGAGAGTTATATA [XGTACX_site8859]”, the “gcPBM binding intensity (ln)” value was determined as 9.52.

Turning to “TAAGAAATAAATAGTACACACATAGACACAGACACA [CACACA_site4934]”, the “gcPBM binding intensity (ln)” value was determined as 10.6.

In the case of “TTTAAATACAGACATACACACATACACCCACATATA [CACACA_site8078]”, the “gcPBM binding intensity (ln)” value stood at 10.2.

With “GTATATGAGAAAAAAAGTACATGCACAAAATGTATA [XGTACX_site6441]”, the “gcPBM binding intensity (ln)” value is 9.74.

As to “GATATTCTATAAAAAAGTACAAATATTTTAAAAAAT [XGTACX_site2177]”, the “gcPBM binding intensity (ln)” value amounted to 9.53.

Take “AGCATTAATTATTTCACACATATATATATATATATA [CACACA_site4889]”: the “gcPBM binding intensity (ln)” value is 9.76.

Take “TAAATCCTTTACAACACACACACAAAAAAAAAAAAA [CACACA_site643]”: the “gcPBM binding intensity (ln)” value was determined as 10.2.

“TCATTTTAAAAAAATAGTACTTTAAGAAACTTTTAT [XGTACX_site602]”: the “gcPBM binding intensity (ln)” value was determined as 9.14.

For the sequence “TTTTTTTTTTTTTTTTTTTATGTATACATATTTATA [TGCATGCA_negctrl_site234]”, the “gcPBM binding intensity (ln)” value turned out to be 9.23.

As to “TTATAATGAAATATATTCTTATTCTTTTTTTTTTTT [GTGCAC_negctrl_site384]”, the “gcPBM binding intensity (ln)” value stood at 9.37.

Turning to “TAAAATGTACAGGACGCACACACATATATATATATA [CACACA_site3673]”, the “gcPBM binding intensity (ln)” value is 10.1.

Regarding “TTTTTTTTTTTTCATTGTACTCTTAAAAATTCAACT [XGTACX_site3154]”, the “gcPBM binding intensity (ln)” value stood at 9.44.

Consider “AACAACAACTAATATGCACACATTTAAAAACAAAAT [CACACA_site2440]”, for which the “gcPBM binding intensity (ln)” value turned out to be 9.94.

On to “TATTTTTTTTTTTTTTTACACACTATAGGGAAAAAA [CACACA_site8583]”, for which the “gcPBM binding intensity (ln)” value is 9.41.

Consider “ATTAAAATTTAAAATACACACACATATATATAATAT [CACACA_site8612]”, for which the “gcPBM binding intensity (ln)” value came to 10.4.

On to “CATACATACATACATACACACACATATATATATATA [CACACA_site8593]”, for which the “gcPBM binding intensity (ln)” value amounted to 9.96.

With “AAACCTTTACATCGTTTGCACTATATTGATATGTGT [GTGCAC_site9686]”, the “gcPBM binding intensity (ln)” value came to 9.85.

With “TTTTTTAACAAAAATAAAACATAACTGAATTAAAAG [GTGCAC_negctrl_site244]”, the “gcPBM binding intensity (ln)” value came to 9.48.

In the case of “CTTCCTATATTTTACTGTACTTTTTTTTTTTTTTTT [XGTACX_site4016]”, the “gcPBM binding intensity (ln)” value was found to be 9.75.

Regarding “ACGAATTAAATTTGCTGTACCAAAAAGAAAACAATA [XGTACX_site5511]”, the “gcPBM binding intensity (ln)” value amounted to 9.62.
